Results published in PMC4336329 (PLoS ONE, 2015).
Screen size: about 310,000 compounds; about 2,200 (0.71%) showed an effect of 50% or more. Effects have a minus sign here. The list shows a part of the results.

The molecules below were run against human ether-à-go-go-related gene (hERG) potassium channel (human, UniProt Q12809) (assay: primary screen, population patch clamp on CHO cells stably expressing hERG).
Sequence of human ether-à-go-go-related gene (hERG) potassium channel (Q12809 whole entry, looked up): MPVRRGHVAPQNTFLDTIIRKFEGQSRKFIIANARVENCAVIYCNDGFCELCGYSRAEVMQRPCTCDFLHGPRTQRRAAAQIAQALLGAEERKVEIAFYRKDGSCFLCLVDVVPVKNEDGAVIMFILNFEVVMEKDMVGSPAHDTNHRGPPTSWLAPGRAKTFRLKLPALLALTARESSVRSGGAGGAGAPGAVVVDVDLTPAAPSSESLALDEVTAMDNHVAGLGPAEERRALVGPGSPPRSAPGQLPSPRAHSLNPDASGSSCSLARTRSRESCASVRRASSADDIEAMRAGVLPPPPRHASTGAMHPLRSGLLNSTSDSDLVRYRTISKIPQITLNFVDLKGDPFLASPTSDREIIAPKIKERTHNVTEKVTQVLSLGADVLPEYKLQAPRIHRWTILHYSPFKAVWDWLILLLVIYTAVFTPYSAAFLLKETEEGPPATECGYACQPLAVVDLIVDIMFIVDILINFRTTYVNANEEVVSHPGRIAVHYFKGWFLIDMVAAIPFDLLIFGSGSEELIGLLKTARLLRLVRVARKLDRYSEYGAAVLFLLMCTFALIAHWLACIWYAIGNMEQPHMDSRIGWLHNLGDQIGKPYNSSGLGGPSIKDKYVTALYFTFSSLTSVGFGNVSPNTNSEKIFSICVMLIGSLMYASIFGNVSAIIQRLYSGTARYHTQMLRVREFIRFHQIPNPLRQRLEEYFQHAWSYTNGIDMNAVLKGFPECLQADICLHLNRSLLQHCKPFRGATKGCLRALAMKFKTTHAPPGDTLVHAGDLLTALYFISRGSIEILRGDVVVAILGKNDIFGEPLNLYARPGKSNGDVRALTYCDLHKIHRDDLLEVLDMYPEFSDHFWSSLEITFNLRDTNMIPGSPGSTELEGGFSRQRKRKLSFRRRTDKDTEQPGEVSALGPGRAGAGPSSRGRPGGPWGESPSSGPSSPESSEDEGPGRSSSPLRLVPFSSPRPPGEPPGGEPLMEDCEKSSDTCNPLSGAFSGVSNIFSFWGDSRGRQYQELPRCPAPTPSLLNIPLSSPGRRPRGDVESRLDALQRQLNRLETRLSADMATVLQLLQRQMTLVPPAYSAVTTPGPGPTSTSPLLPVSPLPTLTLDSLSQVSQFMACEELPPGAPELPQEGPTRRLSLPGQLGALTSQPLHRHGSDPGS

| Compound | hERG current change (%, negative = inhibition) at 1uM [%] |
| --- | --- |
| NC(=O)c1ccc(-n2nnnc2SCC(=O)c2ccc(O)c(O)c2)cc1 | 8.71 |
| c1ccc2c3c(c(CN4CCCC4)cc2c1)COC3 | 7.13 |
| C/C(N)=C(/C#N)C(=O)CSc1cc(C)c2cc(C)cc(C)c2n1 | -1.21 |
| COC(=O)/C=C/C(=O)N1CCN(c2ccccc2C)CC1 | 11.3 |
| COc1cc(/C=N/Nc2ccc([N+](=O)[O-])cc2S(=O)(=O)N2CCOCC2)cc(OC)c1OC | 10.2 |
| Cc1ccccc1-c1nc2sc(-c3ccccc3)cc2c(=O)o1 | 20.9 |
| Cc1ccc(-n2nc(CC#N)c(C#N)c2N)cc1 | 6.71 |
| Cc1ccnn1CC(=O)N/N=C/c1cccs1 | -1.87 |
| CC(OC(=O)c1ccc(Cl)nc1)C(=O)Nc1ccc(S(=O)(=O)N2CCCC2)cc1 (stereo not drawn) | -7.44 |
| CCC1(C)Cc2c(sc3nnn(Cc4ccccc4Cl)c(=O)c23)CO1 (stereo not drawn) | 18.3 |
| CCOC(=O)C1(CCOc2ccccc2)CCN(Cc2nccn2CC)CC1 | -5.37 |
| Cc1c(Cl)cccc1NC(=O)c1cccnc1 | 13.6 |
| CC(CN1CCCCC1)OC(=O)C(C)(c1ccccc1)c1ccccc1.Cl (stereo not drawn) | -0.115 |
| COC(=O)C1=C(C)N(c2ccc(C)c(C)c2)/C(=C/c2ccc(O)cc2)C1=O | 10.4 |
| COc1cccc(NC(=O)C2CCN(S(=O)(=O)c3ccc4c(c3)OCCO4)CC2)c1 | 20.4 |
| O=C(CCn1ccc2cc(S(=O)(=O)N3CCCC3)ccc21)NCc1ccccc1 | 12.7 |
| Cc1cc(SCC(=O)N(C)c2c(N)n(Cc3ccccc3)c(=O)[nH]c2=O)nc2ccccc12 | 13.6 |
| Cc1ccc(NC(=O)N2Cc3ccccc3CC2C(=O)NC(C)(C)C)cc1 (stereo not drawn) | 6.94 |
| O=C(N/C(=C/c1cccc(Br)c1)c1nc(=S)[nH][nH]1)c1ccccc1 | 6.77 |
| O=C(O)CN=C(NS(=O)(=O)c1ccc(Cl)cc1)c1ccc(F)cc1 | 12.5 |
| Cc1ccc(C)c(S(=O)(=O)N2CC(=O)N(CCc3ccccc3)C(=O)C2)c1 | 5.37 |
| Cc1ccc(CC2CC(=O)N(c3nc4ccccc4s3)C2=O)cc1 (stereo not drawn) | 14.5 |
| COc1ccc(OC)c(NC(=O)Cn2cc(C=O)c3ccccc32)c1 | 18.4 |
| COc1cccc(NC(=O)CCCNC(=O)Cn2cnc3sc(C)c(C)c3c2=O)c1 | 19.5 |
